Laboratory results as given in the supplement of paper PMC7125110.
± gives the standard error. Variants at the floor of the assay are shown more often than the library holds them.

B1: glmS ribozyme (parent)
chain: AUAAAAGCGCCAGAACUACAGAAAUGUAGUUGACGAGGAGGAGGUUUAUCGAAUUUUCGGCGGAUGCCUCCAAA

Legend:
Conditions in all cases: with glucosamine-6-phosphate
[1] = variants of: B1; experiment: self-cleavage kobs at 640 uM GlcN6P; higher = faster cleavage; RNA array
Outline: (§1)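 Sequenced MiSeq chips were the platform: E. coli RNA polymerase transcribed barcoded ribozyme variants on them in situ, and a hybridised Cy3 probe tracked these at 37 °C. After glucosamine-6-phosphate (40 μM to 10 mM) in HEPES/KCl/Mg(OAc)2 buffer was flowed in, tiles were imaged over ~14 h. Signals normalised to baseline and to non-cleaving reference variants were reduced to per-tile medians and fit to one- or two-exponential decays to obtain kobs. kcat and KM were derived through weighted Michaelis–Menten fits across concentrations.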

[2] = variants of: B1; experiment: self-cleavage kobs at 160 uM GlcN6P; higher = faster cleavage; RNA array
Outline: as §1

[3] = variants of: B1; experiment: self-cleavage kobs at 2500 uM GlcN6P; higher = faster cleavage; RNA array
Outline: as §1

[4] = variants of: B1; experiment: self-cleavage kobs at 10000 uM GlcN6P; higher = faster cleavage; RNA array
Outline: as §1

| Variant | self-cleavage kobs at 640 uM GlcN6P [1] | self-cleavage kobs at 160 uM GlcN6P [2] | self-cleavage kobs at 2500 uM GlcN6P [3] | self-cleavage kobs at 10000 uM GlcN6P [4] |
| --- | --- | --- | --- | --- |
| A15U U46A | 8.53e-05 ± 9.5e-06 s⁻¹ | 3.16e-05 ± 1.1e-05 s⁻¹ | 0.000225 ± 2.3e-05 s⁻¹ | 0.000303 ± 3.2e-05 s⁻¹ |
| A15G G29U G41U G51A C70G | < 1e-05 s⁻¹ | – | < 1e-05 s⁻¹ | – |
| G13C G41U U65C | < 1e-05 s⁻¹ | < 1e-05 s⁻¹ | – | – |
| A15C A48C C68U | < 1e-05 s⁻¹ | – | < 1e-05 s⁻¹ | – |
| A14G C34G G38U G60A G66A | < 1e-05 s⁻¹ | – | – | – |
| A15U G32A U46G C50G | 8.2e-05 ± 2.3e-05 s⁻¹ | – | – | – |
| A15G A42U | 6.62e-05 ± 1.7e-05 s⁻¹ | 2.77e-05 ± 1.4e-05 s⁻¹ | 0.000216 ± 3.8e-05 s⁻¹ | 0.000203 ± 3e-05 s⁻¹ |
| C16G G35C A48G U57C G62A C67A U69A | < 1e-05 s⁻¹ | – | < 1e-05 s⁻¹ | < 1e-05 s⁻¹ |
| A14C G41A G62U C70G | < 1e-05 s⁻¹ | – | < 1e-05 s⁻¹ | – |
| A15C U46A | 0.000102 ± 2.1e-05 s⁻¹ | – | 0.000152 ± 3.8e-05 s⁻¹ | 0.000416 ± 9.4e-05 s⁻¹ |
| A14U G32C G62U | < 1e-05 s⁻¹ | – | – | – |
| A15G G29U G32A A42C C61G | < 1e-05 s⁻¹ | < 1e-05 s⁻¹ | – | – |
| A14C A36G A39G U46C | < 1e-05 s⁻¹ | – | – | – |
| A14C G32U A52C | < 1e-05 s⁻¹ | < 1e-05 s⁻¹ | < 1e-05 s⁻¹ | – |
| A14C G38U G44U C68G | < 1e-05 s⁻¹ | – | < 1e-05 s⁻¹ | – |
| A14U C50G G62A | 0.000193 ± 8.2e-05 s⁻¹ | – | – | – |
| G13U A42U | < 1e-05 s⁻¹ | < 1e-05 s⁻¹ | < 1e-05 s⁻¹ | – |
| G13U A42U U46G G51A | < 1e-05 s⁻¹ | – | < 1e-05 s⁻¹ | – |
| G13C G32A U45A A52U G60A G62C A64G C68U | < 1e-05 s⁻¹ | – | < 1e-05 s⁻¹ | – |
| A15C G38U C71U | < 1e-05 s⁻¹ | – | < 1e-05 s⁻¹ | – |

| Variant | self-cleavage kobs at 640 uM GlcN6P [1] | self-cleavage kobs at 160 uM GlcN6P [2] | self-cleavage kobs at 2500 uM GlcN6P [3] | self-cleavage kobs at 10000 uM GlcN6P [4] |
| --- | --- | --- | --- | --- |
| C16A U31G A52C | < 1e-05 s⁻¹ | – | < 1e-05 s⁻¹ | – |
| A14G G29U G35C | < 1e-05 s⁻¹ | < 1e-05 s⁻¹ | < 1e-05 s⁻¹ | < 1e-05 s⁻¹ |
| C16G U30A A42U | < 1e-05 s⁻¹ | – | – | – |
| A14C A42G G66A | 0.000473 ± 0.00012 s⁻¹ | – | – | – |
| A14G A15G U55G A64G | 0.00775 ± 0.002 s⁻¹ | 0.00524 ± 0.0017 s⁻¹ | – | – |
| A14U U65C | 3.59e-05 ± 8.9e-06 s⁻¹ | – | 9.87e-05 ± 1.3e-05 s⁻¹ | 7.83e-05 ± 7.7e-06 s⁻¹ |
| A14U U65A | 0.000203 ± 2.7e-05 s⁻¹ | 4.54e-05 ± 1.3e-05 s⁻¹ | 0.000449 ± 0.00012 s⁻¹ | 0.00105 ± 0.00012 s⁻¹ |
| A14C G38C U46G U47G G51U | < 1e-05 s⁻¹ | – | – | – |
| A15C U30A C67A | 0.000357 ± 8.3e-05 s⁻¹ | 0.000277 ± 6.8e-05 s⁻¹ | 0.0013 ± 0.0005 s⁻¹ | – |
| A14U A36U U47C | < 1e-05 s⁻¹ | – | < 1e-05 s⁻¹ | – |
| A14G G32C C70G | < 1e-05 s⁻¹ | – | – | – |
| A14G G44C U56G A64G U65G | < 1e-05 s⁻¹ | < 1e-05 s⁻¹ | – | – |
| A15G A36U G41U A48U G62A | < 1e-05 s⁻¹ | – | – | – |
| G13C A33U G60C | < 1e-05 s⁻¹ | – | – | – |
| A14C C50G | 0.000625 ± 0.00028 s⁻¹ | 5.43e-05 ± 1.5e-05 s⁻¹ | 4.32e-05 ± 1.3e-05 s⁻¹ | – |
| A15C C16A A39C G41U U45C | < 1e-05 s⁻¹ | – | < 1e-05 s⁻¹ | – |
| G13A U30G | 3.9e-05 ± 1e-05 s⁻¹ | – | 0.000144 ± 3.3e-05 s⁻¹ | 0.000271 ± 3.9e-05 s⁻¹ |
| C16A A36G G63U | < 1e-05 s⁻¹ | < 1e-05 s⁻¹ | < 1e-05 s⁻¹ | – |
| C16G U31C | 8.88e-05 ± 1.7e-05 s⁻¹ | – | 0.000269 ± 4.6e-05 s⁻¹ | 0.000401 ± 0.00011 s⁻¹ |
| A15C C16A G35U | < 1e-05 s⁻¹ | – | – | – |

| Variant | self-cleavage kobs at 640 uM GlcN6P [1] | self-cleavage kobs at 160 uM GlcN6P [2] | self-cleavage kobs at 2500 uM GlcN6P [3] | self-cleavage kobs at 10000 uM GlcN6P [4] |
| --- | --- | --- | --- | --- |
| G13C A14C C71U | 4.16e-05 ± 1.1e-05 s⁻¹ | – | 0.000105 ± 1.7e-05 s⁻¹ | – |
| C16G A52C U56A | < 1e-05 s⁻¹ | < 1e-05 s⁻¹ | – | – |
| C16A A39U G40A A53U C58U U65G | < 1e-05 s⁻¹ | – | < 1e-05 s⁻¹ | – |
| A15C G44C C50U | < 1e-05 s⁻¹ | – | < 1e-05 s⁻¹ | – |
| A14U G35U A39U C50U C70G | < 1e-05 s⁻¹ | < 1e-05 s⁻¹ | – | – |
| A15G A48G | 4.16e-05 ± 1.4e-05 s⁻¹ | – | – | – |
| A14U A15U C68U | 8.97e-05 ± 2.4e-05 s⁻¹ | – | – | – |
| A15G U65C C68G | < 1e-05 s⁻¹ | – | < 1e-05 s⁻¹ | – |
| A15C A42C G44A U47A | < 1e-05 s⁻¹ | – | < 1e-05 s⁻¹ | – |
| C16A U30A A33G | < 1e-05 s⁻¹ | – | – | – |
| G13C A14C U55G G59U | < 1e-05 s⁻¹ | < 1e-05 s⁻¹ | – | – |
| G13U G29A A33U | < 1e-05 s⁻¹ | – | – | – |
| A14C G29C G35U U49A | < 1e-05 s⁻¹ | – | < 1e-05 s⁻¹ | – |
| C16A G43A C61A | < 1e-05 s⁻¹ | – | – | – |
| A15U G32U G35C A36U | < 1e-05 s⁻¹ | – | – | – |
| C16G U45C | 7.2e-05 ± 2.1e-05 s⁻¹ | – | 0.000367 ± 9.7e-05 s⁻¹ | 0.000243 ± 3.7e-05 s⁻¹ |
| C16G C34A G62U | < 1e-05 s⁻¹ | – | < 1e-05 s⁻¹ | < 1e-05 s⁻¹ |
| A14C G35C A39G | < 1e-05 s⁻¹ | – | – | – |
